# Test results from the supplement of paper PMC8728848.
# The list shows a part of the results.
# B1: Eap (Staphylococcus aureus), A0A7L5PYT7 (protein)
# chain: MKFKSLITTTLALGVLASTGANFNNNEAAAAAKPLDKSSSSLHHGYSKVHVPYAITVNGTSQNILSSLTFNKNQNISYKDLEDRVKSVLKSDRGISDIDLRLSKQAKYTVYFKNGTKKVIDLKAGIYTADLINTSEIKAININVDTKKQVEDKKKDKANYQVPYTITVNGTSQNILSNLTFNKNQNISYKDLEDKVKSVLESNRGITDVDLRLSKQAKYTVNFKNGTKKVIDLKSGIYTANLINSSDIKSININVDTKKHIENKAKRNYQVPYSINLNGTSTNILSNLSFSNKPWTNYKNLTSQIKSVLKHDRGISEQDLKYAKKAYYTVYFKNGGKRILQLNSKNYTANLVHAKDVKRIEITVKTGTKAKADRYVPYTIAVNGTSTPILSDLKFTGDPRVGYKDISKKVKSVLKHDRGIGERELKYAKKATYTVHFKNGTKKVININSNISQLNLLYVQDIKKIDIDVKTGTKAKADSYVPYTIAVNGTSTPILSKLKISNKQLISYKYLNDKVKSVLKSERGISDLDLKFAKQAKYTVYFKNGKKQVVNLKSDIFTPNLFSAKDIKKIDIDVKQYTKSKKNK
# How the values were obtained:
# Assay in all cases: glycan array binding signal (z-score within array); higher = stronger binding
# Settings in all cases: glycan notation: IUPAC condensed, linker removed
# [1] = biological target: Neu5Ac(a2-3)Gal(b1-4)[Fuc(a1-3)]GlcNAc(b1-3)Gal(b1-4)[Fuc(a1-3)]GlcNAc(b1-3)Gal(b1-4)[Fuc(a1-3)]GlcNAc
# Procedure, shortened: (§1)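 The Consortium for Functional Glycomics database supplied 3228 glycan arrays, of which those lacking an available protein sequence were dropped. The binding signal, a within-array Z-score, was averaged across arrays of the same protein sequence and across linkers. Negative scores can be read as non-binding.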
# [2] = biological target: Neu5Ac(a2-3)Gal(b1-4)[Fuc(a1-3)]GlcNAc(b1-6)[Gal(b1-3)]GalNAc
# Procedure, shortened: as §1
# [3] = biological target: Neu5Ac(a2-3)Gal(b1-4)[Fuc(a1-3)]GlcNAc(b1-6)[Neu5Ac(a2-3)Gal(b1-3)]GalNAc
# Procedure, shortened: as §1
# [4] = biological target: Neu5Ac(a2-3)Gal(b1-4)[Fuc(a1-3)]GlcNAc6S
# Procedure, shortened: as §1
# [5] = biological target: Neu5Ac(a2-3)Gal6S(b1-4)GlcNAc
# Procedure, shortened: as §1
# [6] = biological target: Neu5Ac(a2-3)Gal6S(b1-4)[Fuc(a1-3)]GlcNAc
# Procedure, shortened: as §1
# Neu5Ac(a2-3)GalNAc = biological target: Neu5Ac(a2-3)GalNAc
# Procedure, shortened: as §1
# [7] = biological target: Neu5Ac(a2-3)GalNAc(b1-4)GlcNAc
# Procedure, shortened: as §1
# [8] = biological target: Neu5Ac(a2-3)[GalNAc(b1-4)]Gal(b1-4)Glc
# Procedure, shortened: as §1
# [9] = biological target: Neu5Ac(a2-3)[GalNAc(b1-4)]Gal(b1-4)GlcNAc
# Procedure, shortened: as §1
# [10] = biological target: Neu5Ac(a2-3)[Neu5Ac(a2-6)]GalNAc
# Procedure, shortened: as §1
# Neu5Ac(a2-6)Gal = biological target: Neu5Ac(a2-6)Gal
# Procedure, shortened: as §1
# Neu5Ac(a2-6)Gal(b1-4)Glc = biological target: Neu5Ac(a2-6)Gal(b1-4)Glc
# Procedure, shortened: as §1
# [11] = biological target: Neu5Ac(a2-6)Gal(b1-4)GlcNAc
# Procedure, shortened: as §1
# [12] = biological target: Neu5Ac(a2-6)Gal(b1-4)GlcNAc(b1-2)Man(a1-3)Man(b1-4)GlcNAc(b1-4)GlcNAc
# Procedure, shortened: as §1
# [13] = biological target: Neu5Ac(a2-6)Gal(b1-4)GlcNAc(b1-2)Man(a1-3)[Gal(b1-4)GlcNAc(b1-2)Man(a1-6)]Man(b1-4)GlcNAc(b1-4)GlcNAc
# Procedure, shortened: as §1
# [14] = biological target: Neu5Ac(a2-6)Gal(b1-4)GlcNAc(b1-2)Man(a1-3)[GlcNAc(b1-2)Man(a1-6)]Man(b1-4)GlcNAc(b1-4)GlcNAc
# Procedure, shortened: as §1
# [15] = biological target: Neu5Ac(a2-6)Gal(b1-4)GlcNAc(b1-2)Man(a1-3)[GlcNAc(b1-2)Man(b1-4)GlcNAc(b1-2)Man(a1-6)]Man(b1-4)GlcNAc(b1-4)GlcNAc
# Procedure, shortened: as §1
# [16] = biological target: Neu5Ac(a2-6)Gal(b1-4)GlcNAc(b1-2)Man(a1-3)[Man(a1-6)]Man(b1-4)GlcNAc(b1-4)GlcNAc
# Procedure, shortened: as §1
# [17] = biological target: Neu5Ac(a2-6)Gal(b1-4)GlcNAc(b1-2)Man(a1-3)[Neu5Ac(a2-6)Gal(b1-4)GlcNAc(b1-2)Man(a1-6)]Man(b1-4)GlcNAc(b1-4)GlcNAc
# Procedure, shortened: as §1
# [18] = biological target: Neu5Ac(a2-6)Gal(b1-4)GlcNAc(b1-2)Man(a1-6)Man(b1-4)GlcNAc(b1-4)GlcNAc
# Procedure, shortened: as §1
# [19] = biological target: Neu5Ac(a2-6)Gal(b1-4)GlcNAc(b1-2)Man(a1-6)[Gal(b1-4)GlcNAc(b1-2)Man(a1-3)]Man(b1-4)GlcNAc(b1-4)GlcNAc
# Procedure, shortened: as §1
# [20] = biological target: Neu5Ac(a2-6)Gal(b1-4)GlcNAc(b1-2)Man(a1-6)[GlcNAc(b1-2)Man(a1-3)]Man(b1-4)GlcNAc(b1-4)GlcNAc
# Procedure, shortened: as §1
# [21] = biological target: Neu5Ac(a2-6)Gal(b1-4)GlcNAc(b1-2)Man(a1-6)[Man(a1-3)]Man(b1-4)GlcNAc(b1-4)GlcNAc
# Procedure, shortened: as §1
# [22] = biological target: Neu5Ac(a2-6)Gal(b1-4)GlcNAc(b1-3)Gal(b1-3)GlcNAc
# Procedure, shortened: as §1
# [23] = biological target: Neu5Ac(a2-6)Gal(b1-4)GlcNAc(b1-3)Gal(b1-4)GlcNAc
# Procedure, shortened: as §1
# [24] = biological target: Neu5Ac(a2-6)Gal(b1-4)GlcNAc(b1-3)Gal(b1-4)GlcNAc(b1-3)Gal(b1-4)GlcNAc
# Procedure, shortened: as §1
# [25] = biological target: Neu5Ac(a2-6)Gal(b1-4)GlcNAc(b1-3)Gal(b1-4)[Fuc(a1-3)]GlcNAc(b1-3)Gal(b1-4)[Fuc(a1-3)]GlcNAc
# Procedure, shortened: as §1
# [26] = biological target: Neu5Ac(a2-6)Gal(b1-4)GlcNAc(b1-3)GalNAc
# Procedure, shortened: as §1
# [27] = biological target: Neu5Ac(a2-6)Gal(b1-4)GlcNAc6S
# Procedure, shortened: as §1
# Neu5Ac(a2-6)GalNAc = biological target: Neu5Ac(a2-6)GalNAc
# Procedure, shortened: as §1
# [28] = biological target: Neu5Ac(a2-6)GalNAc(b1-4)GlcNAc
# Procedure, shortened: as §1
# [29] = biological target: Neu5Ac(a2-6)GlcNAc(b1-4)GlcNAc
# Procedure, shortened: as §1
# [30] = biological target: Neu5Ac(a2-6)GlcNAc(b1-4)GlcNAc(b1-4)GlcNAc
# Procedure, shortened: as §1
# Neu5Ac(a2-8)Neu5Ac = biological target: Neu5Ac(a2-8)Neu5Ac
# Procedure, shortened: as §1
# [31] = biological target: Neu5Ac(a2-8)Neu5Ac(a2-3)Gal(b1-4)Glc
# Procedure, shortened: as §1
# [32] = biological target: Neu5Ac(a2-8)Neu5Ac(a2-3)[GalNAc(b1-4)]Gal(b1-4)Glc
# Procedure, shortened: as §1
# [33] = biological target: Neu5Ac(a2-8)Neu5Ac(a2-8)Neu5Ac
# Procedure, shortened: as §1
# [34] = biological target: Neu5Ac(a2-8)Neu5Ac(a2-8)Neu5Ac(a2-3)Gal(b1-4)Glc
# Procedure, shortened: as §1
# [35] = biological target: Neu5Ac(a2-8)Neu5Ac(a2-8)Neu5Ac(a2-3)[GalNAc(b1-4)]Gal(b1-4)Glc
# Procedure, shortened: as §1
# [36] = biological target: Neu5Ac(a2-8)Neu5Ac(a2-8)Neu5Ac(a2-8)Neu5Ac(a2-3)[GalNAc(b1-4)]Gal(b1-4)Glc
# Procedure, shortened: as §1
# [37] = biological target: Neu5Ac(b2-6)Gal(b1-4)GlcNAc
# Procedure, shortened: as §1
# Neu5Ac(b2-6)GalNAc = biological target: Neu5Ac(b2-6)GalNAc
# Procedure, shortened: as §1
# [38] = biological target: Neu5Ac9Ac(a2-3)Gal(b1-3)GlcNAc
# Procedure, shortened: as §1
# [39] = biological target: Neu5Ac9Ac(a2-3)Gal(b1-4)GlcNAc
# Procedure, shortened: as §1
# [40] = biological target: Neu5Ac9Ac(a2-6)Gal(b1-4)GlcNAc
# Procedure, shortened: as §1
# [41] = biological target: Neu5Gc(a2-3)Gal(b1-3)GlcNAc
# Procedure, shortened: as §1
# [42] = biological target: Neu5Gc(a2-3)Gal(b1-3)[Fuc(a1-4)]GlcNAc
# Procedure, shortened: as §1
# Neu5Gc(a2-3)Gal(b1-4)Glc = biological target: Neu5Gc(a2-3)Gal(b1-4)Glc
# Procedure, shortened: as §1
# [43] = biological target: Neu5Gc(a2-3)Gal(b1-4)GlcNAc
# Procedure, shortened: as §1
# [44] = biological target: Neu5Gc(a2-3)Gal(b1-4)[Fuc(a1-3)]GlcNAc
# Procedure, shortened: as §1
# [45] = biological target: Neu5Gc(a2-6)Gal(b1-4)GlcNAc
# Procedure, shortened: as §1
# Neu5Gc(a2-6)GalNAc = biological target: Neu5Gc(a2-6)GalNAc
# Procedure, shortened: as §1
# [46] = biological target: Neu5Gc(b2-6)Gal(b1-4)GlcNAc
# Procedure, shortened: as §1
binder,measurement,setting,value
B1,glycan array binding signal (z-score),[1],-0.728
same,glycan array binding signal (z-score),[2],-0.08
same,glycan array binding signal (z-score),[3],-0.297
same,glycan array binding signal (z-score),[4],-0.653
same,glycan array binding signal (z-score),[5],1.12
same,glycan array binding signal (z-score),[6],-0.35
same,glycan array binding signal (z-score),Neu5Ac(a2-3)GalNAc,-0.425
same,glycan array binding signal (z-score),[7],-0.589
same,glycan array binding signal (z-score),[8],-0.502
same,glycan array binding signal (z-score),[9],-0.33
same,glycan array binding signal (z-score),[10],-0.406
same,glycan array binding signal (z-score),Neu5Ac(a2-6)Gal,-0.41
same,glycan array binding signal (z-score),Neu5Ac(a2-6)Gal(b1-4)Glc,0.222
same,glycan array binding signal (z-score),[11],-0.351
same,glycan array binding signal (z-score),[12],-0.609
same,glycan array binding signal (z-score),[13],-0.48
same,glycan array binding signal (z-score),[14],-0.646
same,glycan array binding signal (z-score),[15],-0.57
same,glycan array binding signal (z-score),[16],-0.525
same,glycan array binding signal (z-score),[17],-0.095
same,glycan array binding signal (z-score),[18],-0.648
same,glycan array binding signal (z-score),[19],-0.362
same,glycan array binding signal (z-score),[20],-0.63
same,glycan array binding signal (z-score),[21],-0.496
same,glycan array binding signal (z-score),[22],-0.168
same,glycan array binding signal (z-score),[23],-0.493
same,glycan array binding signal (z-score),[24],-0.513
same,glycan array binding signal (z-score),[25],-0.323
same,glycan array binding signal (z-score),[26],0.453
same,glycan array binding signal (z-score),[27],-0.392
same,glycan array binding signal (z-score),Neu5Ac(a2-6)GalNAc,-0.656
same,glycan array binding signal (z-score),[28],-0.538
same,glycan array binding signal (z-score),[29],-0.604
same,glycan array binding signal (z-score),[30],-0.56
same,glycan array binding signal (z-score),Neu5Ac(a2-8)Neu5Ac,-0.399
same,glycan array binding signal (z-score),[31],-0.508
same,glycan array binding signal (z-score),[32],-0.511
same,glycan array binding signal (z-score),[33],-0.447
same,glycan array binding signal (z-score),[34],-0.632
same,glycan array binding signal (z-score),[35],-0.376
same,glycan array binding signal (z-score),[36],-0.431
same,glycan array binding signal (z-score),[37],-0.365
same,glycan array binding signal (z-score),Neu5Ac(b2-6)GalNAc,-0.421
same,glycan array binding signal (z-score),[38],0.41
same,glycan array binding signal (z-score),[39],-0.167
same,glycan array binding signal (z-score),[40],-0.241
same,glycan array binding signal (z-score),[41],-0.196
same,glycan array binding signal (z-score),[42],-0.513
same,glycan array binding signal (z-score),Neu5Gc(a2-3)Gal(b1-4)Glc,-0.159
same,glycan array binding signal (z-score),[43],-0.529
same,glycan array binding signal (z-score),[44],-0.525
same,glycan array binding signal (z-score),[45],-0.235
same,glycan array binding signal (z-score),Neu5Gc(a2-6)GalNAc,1.1
same,glycan array binding signal (z-score),[46],0.298
